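96-well plates; 48 h exposure; 5 concentrations. Endpoints by linear interpolation between flanking doses. Not reached: highest tested concentration assigned. The concentration for 50% growth inhibition is given as GI50. TGI denotes the concentration required for complete inhibition of growth.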
Test system: NCI-H322M lung
Assay: NCI tumour cell line growth inhibition, 48 h

SMILES | GI50 [µM] | TGI [µM]
CN(C)CCCOc1ccc(-c2ccc3ncc4c(c3c2)n(C2CCOCC2)c(=O)n4C)cn1 | 1.99 | 11.3
C=C(C)C(=O)O[C@H]1C[C@@]23O[C@@H]2CCC(=C[C@H]2OC(=O)C(=C)[C@H]12)COC3O (stereo partly specified) | – | > 100
COc1cc(/C=C2\C(=O)Nc3cc(C)c(O)cc32)cc(OC)c1OC | 9.62 | 29.3
[Cl][Hg][Cl] | 16.1 | 29.7
NC(CCCC(N)P(=O)(O)c1ccccc1)P(=O)(O)c1ccccc1 (stereo unspecified) | – | > 261
N[C@H](C(=O)O)[C@H]1ON=C(Cl)[C@@H]1O | 1.86 | > 550
COCCCNC(=O)C1C(=O)N(CCCOC)C(=O)/C1=N\N (stereo unspecified) | – | > 100
COC(=O)/C=C\n1c(C)cc(=O)[nH]c1=O | – | > 100
CCc1cccc(C)c1NC(=O)c1sc2nc3c(cc2c1N)CCCCC3 | 5.69 | > 100
CCC[CH2][Sn]([CH2]CCC)([CH2]CCC)[O]c1ccc(Cl)cc1Cl | 0.0992 | 0.259
COc1ccc2c(CN3CCCCC3CO)cc3cc(OC)c(OC)cc3c2c1 (stereo unspecified) | – | 17.5
Cc1cnc2sn(-c3ccc(Oc4ccccc4)cc3)c(=O)c2c1 | – | > 100
CCCCC(=O)NS(=NC(=O)c1ccccc1)C(Cl)(Cl)Cl (stereo unspecified) | – | > 100
C=C(c1ccc2nc(NC(=O)OC)[nH]c2c1)c1cccs1 | – | > 100
C1CCC2(CC1)O[C@@H]1[C@@H](O2)[C@@H](O[C@H]2O[C@@H]3COC4(CCCCC4)O[C@H]3[C@@H]3OC4(CCCCC4)O[C@@H]23)O[C@@H]2COC3(CCCCC3)O[C@@H]12 | – | > 100
O=C(O)c1cc2ccccc2c(N=Nc2ccc(S(=O)(=O)Nc3nccs3)cc2)c1O | – | > 100

SMILES | GI50 [µM] | TGI [µM]
COc1ccc2c(c1)C(=O)c1c-2n(CCCN=[N+]=[N-])c(=O)c2cc(OC)c(OC)cc12 | > 100 | > 100
COC(=O)/C(=C\Nc1cccc(C)n1)S(=O)(=O)c1ccc(C)cc1 | – | > 100
C#CCOc1cccc(-c2ncnc3cc(NC(=O)CCl)ccc23)c1 | 4.05 | 8.58
O=C(c1ccccc1)N1CCN(C(=S)N(C(=O)c2ccccc2)c2ccccc2)C1=S | – | 27.2
N#CCc1n[nH]c(Cc2ccccc2)n1 | – | > 100
CN(C)CC(C)(C)C(=O)/C=C/c1ccc(/C=C/C(=O)C(C)(C)CN(C)C)cc1 | – | 2.79
COc1cccc(-c2cc(=O)c3cc(OC)ccc3[nH]2)c1 | 0.153 | > 100
CN(CCn1cnc2c1c(=O)n(C)c(=O)n2C)C1CCCCC1 | – | > 100
O=C(c1ccc(Cl)cc1)c1ccc(OCCCOc2ccc(C(=O)c3ccc(Cl)cc3)cc2)cc1 | – | > 100
O=C(NCCC1([N+](=O)[O-])CCN(C(=O)c2ccccc2)CC1)c1ccccc1 | – | > 100
CN(C)CC(C)(C)/C(=N\Nc1ccccc1)c1ccccc1 | – | > 100
CCCC(=O)NC1=C(Cl)C(=O)c2ccccc2C1=O | – | 43.1
CN(C)CCCNC(=O)c1cc(NC(=O)c2cc(NC(=O)CCc3c[nH]c4ccccc34)cn2C)cn1C | > 100 | > 100
COC(=O)c1c(O)ccc2c1c1c(n2Cc2ccccc2Cl)C(=O)c2ccccc2C1=O | – | 30.5
COC(=O)C1=C(C(=O)OC)C(C(=O)c2ccc(Br)cc2)N2N=C(c3ccc(Cl)cc3)C=CC12 (stereo unspecified) | – | > 100

Reference: PubChem BioAssay (NCI)
